Data taken from publication PMC9788986, “Dynamic chromatin accessibility deploys heterotypic cis/trans-acting factors driving stomatal cell-fate commitment” (Nature Plants, 2022).
These are yes or no findings as the source states them, for the method shown. In cells and extracts the contact can be indirect. Some binding calls cover weakened binding; strength is not graded here. For some of these results: Tags and fused reporters may be left off the sequences shown.

T1: BPC1 fused to the half YFP (YFPc) (Arabidopsis thaliana) (UniProt Q9SKD0)
T1 sequence: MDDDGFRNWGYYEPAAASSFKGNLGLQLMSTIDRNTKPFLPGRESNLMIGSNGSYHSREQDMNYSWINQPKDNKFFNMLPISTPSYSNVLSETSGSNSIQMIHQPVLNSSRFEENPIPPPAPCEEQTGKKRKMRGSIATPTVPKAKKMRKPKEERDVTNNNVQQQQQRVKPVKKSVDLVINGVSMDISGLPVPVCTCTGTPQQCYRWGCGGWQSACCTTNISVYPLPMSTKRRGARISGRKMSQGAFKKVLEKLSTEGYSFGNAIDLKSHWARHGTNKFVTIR

T2: BPC2 fused to the half YFP (YFPc) (Arabidopsis thaliana) (UniProt Q9LDE2)
T2 sequence: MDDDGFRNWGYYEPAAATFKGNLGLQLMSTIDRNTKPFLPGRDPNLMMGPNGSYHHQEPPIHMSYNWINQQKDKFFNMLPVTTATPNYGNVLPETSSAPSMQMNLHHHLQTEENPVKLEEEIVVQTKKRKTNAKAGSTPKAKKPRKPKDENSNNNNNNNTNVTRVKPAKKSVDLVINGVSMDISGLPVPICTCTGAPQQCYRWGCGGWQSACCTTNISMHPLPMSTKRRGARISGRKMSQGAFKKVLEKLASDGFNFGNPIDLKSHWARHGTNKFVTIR

T3: SCRM-YFPc (Arabidopsis thaliana) (UniProt Q9LSE2)
T3 sequence: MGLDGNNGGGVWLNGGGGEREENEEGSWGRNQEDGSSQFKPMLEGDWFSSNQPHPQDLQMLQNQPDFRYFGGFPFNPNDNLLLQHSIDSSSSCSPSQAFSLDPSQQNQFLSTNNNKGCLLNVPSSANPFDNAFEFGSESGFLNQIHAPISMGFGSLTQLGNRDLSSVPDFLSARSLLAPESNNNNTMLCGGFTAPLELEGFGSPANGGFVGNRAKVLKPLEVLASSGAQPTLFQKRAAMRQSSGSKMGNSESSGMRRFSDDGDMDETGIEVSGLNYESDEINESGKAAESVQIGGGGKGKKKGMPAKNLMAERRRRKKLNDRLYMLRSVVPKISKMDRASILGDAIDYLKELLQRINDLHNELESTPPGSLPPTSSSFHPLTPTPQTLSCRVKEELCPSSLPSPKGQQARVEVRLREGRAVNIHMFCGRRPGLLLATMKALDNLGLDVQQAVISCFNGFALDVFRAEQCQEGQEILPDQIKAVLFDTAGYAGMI


Legend:
[1] = target: T1, BPC1 fused to the half YFP (YFPc) (Arabidopsis thaliana); test: split reporter; BiFC in N. benthamiana leaves; YFPn and YFPc pair with non-fluorescent-protein-tagged SCRM co-expressed
[2] = target: T2, BPC2 fused to the half YFP (YFPc) (Arabidopsis thaliana); test: as above
[3] = target: T1, BPC1 fused to the half YFP (YFPc) (Arabidopsis thaliana); test: split reporter; BiFC in N. benthamiana leaves; complementary pair of YFPn and YFPc constructs co-infiltrated with silencing suppressor p19; leaf discs imaged 3 d after agro-infiltration
[4] = target: T2, BPC2 fused to the half YFP (YFPc) (Arabidopsis thaliana); test: as above
[5] = target: T3, SCRM-YFPc (Arabidopsis thaliana); test: as above

| binding [1] | binding [2] | binding [3] | binding [4] | binding [5] | Binder |
| --- | --- | --- | --- | --- | --- |
| no binding | no binding | no binding | no binding | binds | SPCH-YFPn (protein, UniProt Q700C7 1-364) MQEIIPDFLEECEFVDTSLAGDDLFAILESLEGAGEISPTAASTPKDGTTSSKELVKDQDYENSSPKRKKQRLETRKEEDEEEEDGDGEAEEDNKQDGQQKMSHVTVERNRRKQMNEHLTVLRSLMPCFYVKRGDQASIIGGVVEYISELQQVLQSLEAKKQRKTYAEVLSPRVVPSPRPSPPVLSPRKPPLSPRINHHQIHHHLLLPPISPRTPQPTSPYRAIPPQLPLIPQPPLRSYSSLASCSSLGDPPPYSPASSSSSPSVSSNHESSVINELVANSKSALADVEVKFSGANVLLKTVSHKIPGQVMKIIAALEDLALEILQVNINTVDETMLNSFTIKIGIECQLSAEELAQQIQQTFC |
| binds | binds | binds | binds | binds | MUTE-YFPn (protein, UniProt Q9M8K6 1-202) MSHIAVERNRRRQMNEHLKSLRSLTPCFYIKRGDQASIIGGVIEFIKELQQLVQVLESKKRRKTLNRPSFPYDHQTIEPSSLGAATTRVPFSRIENVMTTSTFKEVGACCNSPHANVEAKISGSNVVLRVVSRRIVGQLVKIISVLEKLSFQVLHLNISSMEETVLYFFVVKIGLECHLSLEELTLEVQKSFVSDEVIVSTN |
